Data: publication PMC12040169 (PLOS Biology, 2025)
Some of the results follow.

The compounds below were run on T1, C. trachomatis L2/434/Bu expressing GFP (CTL2-GFP). Details: total inclusion area; 28.5 h, 10 µM; inhibitor.
T1 construct: L2/434/Bu GFP intracellular growth in HeLa cells
Design: species or system HeLa; C. trachomatis total inclusion area by high-content imaging, normalised to DMSO
Method in brief: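 High-content imaging followed the bulk GFP/resorufin measurement: fixed, Hoechst-stained cells were scored for GFP inclusions and host nuclei per well. Total inclusion area and count served as growth proxies, nuclei number as the viability proxy. MIC calculation matched the bulk assay.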

Question: `COc1ccc(NC(=O)N2CCCCC2c2cccnc2)cc1` (centres unmarked) [CBK293947] was tested. Which “% of control remaining” value did it give?
Answer: The value was 105.571.

Question: With `COC(=O)c1cc(NC(=O)c2cc(-c3ccc(C)o3)nc3ccccc23)cc(C(=O)OC)c1` [CBK265400] as the compound, how does the “% of control remaining” value read?
Answer: Its value is 107.142.

Question: With `O=C(c1[nH]nc2c1CCCC2)N1CCn2cc(C(F)(F)F)nc2C1` [CBK283915] as the compound, how does the “% of control remaining” value read?
Answer: Its value is 86.2332.

Question: `CCC(C)NC(=O)CN1CCN(Cn2nnc3ccccc3c2=O)CC1` (centres unmarked) [CBK305032] was tested. Which “% of control remaining” value did it give?
Answer: Its value is 84.2331.

Question: For `CN1CCC[C@H]1C(=O)Nc1cc(-c2ccncc2)c[nH]c1=O` [CBK116587], which “% of control remaining” value is on record?
Answer: Its value is 86.9127.

Question: Which “% of control remaining” value does the source give for `CSCC(=O)N1CC[C@H](NC(=O)NC2CCCCC2)[C@H]1C(=O)N1CCC[C@@H]1C(N)=O` [CBK289265] here?
Answer: Its value is 98.6595.

Question: For `Cc1cc(S(=O)(=O)N2CCN(CCO)C(C)C2)sc1Cl` (centres unmarked) [CBK304074], which “% of control remaining” value is on record?
Answer: Its value is 30.8479.

Question: With `O=C(O)c1cccc(OCCNS(=O)(=O)c2ccc(N3CCCC3=O)cc2)c1` [CBK299779] as the compound, how does the “% of control remaining” value read?
Answer: Its value is 93.2101.

Question: With `CC(C)n1c(=O)n(CC(=O)NCCc2ccccc2)c2cccnc21` [CBK283701] as the compound, how does the “% of control remaining” value read?
Answer: Its value is 94.1324.

Question: Which “% of control remaining” value does the source give for `Nn1c(SCc2ccc(C(=O)O)cc2)nnc1-c1ccccn1` [CBK267553] here?
Answer: The value was 90.7444.

Question: With `COc1ccccc1-c1cccc(C2CCCN(C(=O)Cc3c[nH]c4ccccc34)C2)n1` (centres unmarked) [CBK286143] as the compound, how does the “% of control remaining” value read?
Answer: Its value is 90.1698.

Question: Which “% of control remaining” value does the source give for `CCOc1ccc(C(=O)NC(=S)Nc2cccc(C(=O)O)c2C)cc1Br` [CBK265100] here?
Answer: The value was 67.9274.

Question: For `CCN(CC)CCN1CCN(c2cncc(-c3cccs3)n2)CC1` [CBK065703], which “% of control remaining” value is on record?
Answer: The value was 99.6057.

Question: `O=S(=O)(N1CCOCC1)N1CCN(CC(O)COc2ccc(-c3ccccc3)cc2)CC1` (centres unmarked) [CBK269301] was tested. Which “% of control remaining” value did it give?
Answer: Its value is 105.617.

Question: Which “% of control remaining” value does the source give for `CC1CCc2n[nH]c(C(=O)NCCCc3ccco3)c2C1` (centres unmarked) [CBK283153] here?
Answer: The value was 99.6778.

Question: `CC(C)(C)OC(=O)C1(NC(=O)Cc2cn3ccccc3n2)CCCC1` [CBK305500] was tested. Which “% of control remaining” value did it give?
Answer: The value was 109.085.

Question: Which “% of control remaining” value does the source give for `CC(C)(C)OC(=O)N1CCN(S(=O)(=O)c2ccc(Br)cc2)CC1` [CBK143623] here?
Answer: Its value is 80.6152.

Question: `O=C(C[C@@H]1CCNC[C@@H]1Cc1cc(-c2ccccc2)on1)N1CCN(c2ccccc2)CC1` [CBK289148] was tested. Which “% of control remaining” value did it give?
Answer: Its value is 96.1938.

Question: With `COc1ccc(CC(=O)NCC(=O)N2CCC3(CC2)NCCc2nc[nH]c23)cc1` [CBK287997] as the compound, how does the “% of control remaining” value read?
Answer: The value was 85.9507.

Question: How did the “% of control remaining” value turn out when `O=C(O)CC1S/C(=N/N=C/c2ccc(-c3ccc(Cl)cc3)o2)NC1=O` (centres unmarked) [CBK264595] was run?
Answer: Its value is 88.8931.

Question: `CC1CC1C(=O)NCCc1c[nH]c2cccc(C3(O)CCOCC3)c12` (centres unmarked) [CBK284840] was tested. Which “% of control remaining” value did it give?
Answer: Its value is 102.386.

Question: For `CCCc1nc(SC)ncc1C(=O)NCc1ccccn1` [CBK291190], which “% of control remaining” value is on record?
Answer: Its value is 108.591.

Question: For `COCOc1ccc(-c2nc(-c3ccco3)cnc2N)cc1` [CBK064108], which “% of control remaining” value is on record?
Answer: Its value is 79.6298.

Question: `CCOC(=O)c1cnc(SCC(=O)N2CCN(c3ccccc3)CC2)nc1N` [CBK269159] was tested. Which “% of control remaining” value did it give?
Answer: Its value is 92.8795.

Question: `COc1ccc(OCC(=O)Nc2ccc3oc(-c4ccc(OC)c(Br)c4)nc3c2)cc1` [CBK263913] was tested. Which “% of control remaining” value did it give?
Answer: Its value is 13.5919.

Question: How did the “% of control remaining” value turn out when `O=C(Cn1nnc2ccccc21)NCCN1CCCC1` [CBK267200] was run?
Answer: The value was 107.21.

Question: With `CCOc1ccccc1NC(=O)CCCN1C(=O)c2ccccc2C1=O` [CBK265608] as the compound, how does the “% of control remaining” value read?
Answer: Its value is 85.0856.

Question: For `CC1(C)CC(=O)c2sc(NC(=O)CN3C(=O)CCC3=O)nc2C1` [CBK287558], which “% of control remaining” value is on record?
Answer: Its value is 100.69.

Question: Which “% of control remaining” value does the source give for `O=C(Nc1cccc(C(F)(F)F)c1)Nc1cc(N2CCNCC2)c2occc2c1` [CBK061746C] here?
Answer: The value was 56.0657.

Question: `O=C(NN=C1CCCCCCCCCCC1)c1cc2ccccc2cc1O` [CBK261706] was tested. Which “% of control remaining” value did it give?
Answer: Its value is 98.8054.

Question: For `COc1ccc2cc(CNc3ccc(Oc4ccccc4)cc3)c(=O)[nH]c2c1` [CBK286158], which “% of control remaining” value is on record?
Answer: Its value is 114.551.

Question: With `O=C(O)C(CCCN1CCCC1)(c1ccccc1)c1ccccc1` [CBK022695G] as the compound, how does the “% of control remaining” value read?
Answer: Its value is 71.9314.

Question: For `CCN1CCC2(CC1)CN(CC(N)=O)c1ccccc12` [CBK126798], which “% of control remaining” value is on record?
Answer: The value was 101.682.

Question: Which “% of control remaining” value does the source give for `CC1CCc2c(sc(NC(=S)NC(=O)c3cc4ccccc4o3)c2C#N)C1` (centres unmarked) [CBK266319] here?
Answer: The value was 140.405.

Question: With `Cc1cc(NC(=O)N2CCN(c3ncccc3C#N)CC2)no1` [CBK305901] as the compound, how does the “% of control remaining” value read?
Answer: The value was 52.791.

Question: Which “% of control remaining” value does the source give for `CCOC(=O)CN1CCC(Oc2cncc(OCc3cccnc3)n2)C1` (centres unmarked) [CBK084462] here?
Answer: Its value is 105.982.

Question: How did the “% of control remaining” value turn out when `O=C(NCCN1CCCCC1)C1CC(=O)N(c2ccccc2F)C1` (centres unmarked) [CBK305148] was run?
Answer: The value was 35.057.

Question: With `CC1CCN(S(=O)(=O)c2cc(C(=O)OCC(=O)c3ccccc3)c(Cl)cc2Cl)CC1` [CBK264470] as the compound, how does the “% of control remaining” value read?
Answer: The value was 100.723.

Question: Which “% of control remaining” value does the source give for `Cc1ccc(-c2ncc(OCc3ccccc3)nc2N)c(C)c1` [CBK145129] here?
Answer: Its value is 74.2428.

Question: With `CC(C)C(=O)NCCN1CCOCC1` [CBK034322] as the compound, how does the “% of control remaining” value read?
Answer: Its value is 50.1253.

Question: With `COC(=O)CCc1ccc(S(=O)(=O)N2CCN(Cc3csc(-c4ccccc4)n3)CC2)cc1` [CBK062812] as the compound, how does the “% of control remaining” value read?
Answer: Its value is 88.9303.

Question: For `OC(COc1cccc2c1CCCC2)CN1CCC(Cc2ccccc2)CC1` (centres unmarked) [CBK003829], which “% of control remaining” value is on record?
Answer: The value was 51.2942.

Question: How did the “% of control remaining” value turn out when `CCNS(=O)(=O)c1ccc(CCC(=O)Nc2ccc3c(c2)OCCO3)cc1` [CBK268255] was run?
Answer: Its value is 88.889.

Question: `Cc1cc(-c2cc(=O)n(Cc3ccccc3F)nc2C2CC2)on1` [CBK284366] was tested. Which “% of control remaining” value did it give?
Answer: Its value is 72.4474.

Question: Which “% of control remaining” value does the source give for `O=C(NC[C@H]1CC[C@H](c2cc(C(=O)N3CCOCC3)c3ccccc3n2)CC1)C1CCCC1` [CBK285979] here?
Answer: Its value is 115.934.

Question: How did the “% of control remaining” value turn out when `Cc1nc(SCC(=O)N2CCC(C)CC2)c2c3c(sc2n1)CCC3` [CBK265944] was run?
Answer: Its value is 91.282.

Question: Which “% of control remaining” value does the source give for `Cc1cc(-c2cc3nc(C)c(C)c(O)n3n2)c(C)o1` [CBK284500] here?
Answer: The value was 101.066.

Question: Which “% of control remaining” value does the source give for `COc1cc(OC)cc(C(=O)N2CCC3(CC2)CC(=O)c2cc(C)c(C)cc2O3)c1` [CBK164201] here?
Answer: Its value is 131.07.

Question: How did the “% of control remaining” value turn out when `Cc1nc(C2CCCC2)cc([C@H]2CN3CC[C@H]2C[C@@H]3CNC(=O)c2ccco2)n1` [CBK289120] was run?
Answer: Its value is 114.304.

Question: Which “% of control remaining” value does the source give for `Cn1ccnc1SCC(=O)Nc1ccc(I)cc1` [CBK057541] here?
Answer: The value was 59.9924.
